From the supplement of paper PMC4604168 (melanoma cell lines)
This is one part of the list. Single values are uncertain, as repeats are few or missing.

Key:
Test in all cases: cell count relative to DMSO control; melanoma cells; higher = more viable cells
Settings in all cases: library dose: standard library concentration; 72 h
G361 = test system: G361
IPC-298 = test system: IPC-298
IST-MEL1 = test system: IST-MEL1
LB2518-MEL = test system: LB2518-MEL
LOXIMVI = test system: LOXIMVI
MEL-HO = test system: MEL-HO
MZ2-MEL = test system: MZ2-MEL
MeWo = test system: MeWo
RPMI7951 = test system: RPMI7951
RVH-421 = test system: RVH-421
SkMel28 = test system: SkMel28
SkMel2 = test system: SkMel2
SkMel30 = test system: SkMel30
SkMel5 = test system: SkMel5
UACC257 = test system: UACC257
UACC62 = test system: UACC62
WM115 = test system: WM115
WM1716 = test system: WM1716
WM1745 = test system: WM1745
WM3526 = test system: WM3526
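Note: cells treated in 1,536-well plates, then fixed and DAPI-stained, with nuclei counted from automated high-throughput microscope images.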

CO[C@H]1C[C@@H]2CC[C@@H](C)[C@@](O)(O2)C(=O)C(=O)N2CCCC[C@H]2C(=O)O[C@H]([C@H](C)C[C@@H]2CC[C@@H](OCCO)[C@H](OC)C2)CC(=O)[C@H](C)/C=C(\C)[C@@H](O)[C@@H](OC)C(=O)[C@H](C)C[C@H](C)/C=C/C=C/C=C/1C [everolimus] + C=CCNC1=C2C[C@@H](C)C[C@H](OC)[C@H](O)[C@@H](C)/C=C(\C)[C@H](OC(N)=O)[C@@H](OC)/C=C\C=C(/C)C(=O)NC(=CC1=O)C2=O [Tanespimycin] (first compound 0.1 µM, partner dose 0.01 µM)
cell count (G361): 47.1%
cell count (IPC-298): 56.4%
cell count (IST-MEL1): 35.9%
cell count (LB2518-MEL): 48.7%
cell count (LOXIMVI): 77.8%
cell count (MEL-HO): 65.4%
cell count (MZ2-MEL): 70.5%
cell count (MeWo): 53.9%
cell count (RPMI7951): 16.4%
cell count (RVH-421): 63.9%
cell count (SkMel28): 35.3%
cell count (SkMel2): 56.5%
cell count (SkMel30): 66.6%
cell count (SkMel5): 41.4%
cell count (UACC257): 92.6%
cell count (UACC62): 57.6%
cell count (WM115): 22%
cell count (WM1716): 59.9%
cell count (WM1745): 39%
cell count (WM3526): 44.8%

Nc1ncn([C@H]2C[C@H](O)[C@@H](CO)O2)c(=O)n1 [decitabine] + COc1ccc(Cl)c(Nc2nc3ccccc3nc2NS(=O)(=O)c2cccc(NC(=O)C(C)(C)N)c2)c1 [XL147] (first compound 0.5 µM, partner dose 4 µM)
cell count (G361): 72.3%
cell count (IPC-298): 59.9%
cell count (IST-MEL1): 62.1%
cell count (LB2518-MEL): 93.1%
cell count (LOXIMVI): 105%
cell count (MEL-HO): 70.5%
cell count (MZ2-MEL): 70.2%
cell count (MeWo): 75.4%
cell count (RPMI7951): 127%
cell count (RVH-421): 102%
cell count (SkMel28): 87.4%
cell count (SkMel2): 95.4%
cell count (SkMel30): 87.1%
cell count (SkMel5): 68.9%
cell count (UACC257): 84.3%
cell count (UACC62): 82.9%
cell count (WM115): 104%
cell count (WM1716): 81.6%
cell count (WM1745): 86.2%
cell count (WM3526): 82.7%

CC(=O)c1c(C)c2cnc(Nc3ccc(N4CCNCC4)cn3)nc2n(C2CCCC2)c1=O [palbociclib] + C=CCn1c(=O)c2cnc(Nc3ccc(N4CCN(C)CC4)cc3)nc2n1-c1cccc(C(C)(C)O)n1 [MK1775] (first compound 0.2 µM, partner dose 0.1 µM)
cell count (G361): 75.2%
cell count (IPC-298): 62%
cell count (IST-MEL1): 84.7%
cell count (LB2518-MEL): 52.6%
cell count (LOXIMVI): 73.3%
cell count (MEL-HO): 74.3%
cell count (MZ2-MEL): 75.8%
cell count (MeWo): 52.9%
cell count (RPMI7951): 51.5%
cell count (RVH-421): 63.3%
cell count (SkMel28): 35.8%
cell count (SkMel2): 48.6%
cell count (SkMel30): 56.1%
cell count (SkMel5): 48.2%
cell count (UACC257): 82.4%
cell count (UACC62): 61.2%
cell count (WM115): 43.3%
cell count (WM1716): 50%
cell count (WM1745): 65.5%
cell count (WM3526): 50%
